# Assay results as given in article PMC5951580, “The effect of acylation with fatty acids and other modifications on HLA class II:peptide binding and T cell stimulation for three model peptides” (PLoS ONE, 2018).
# Test system: 26 HLA class II molecules (HLA DRB1, DRB3/4/5, DP and DQ allelic variants)
# Experiment: Competition binding of peptides to purified HLA class II molecules (inhibition of a radiolabeled peptide)
# Details: binding = IC50 of 1000 nM or better; for Number of HLA class II alleles bound (of 26 tested): radiolabeled peptide competition, two-day incubation, three or more independent experiments
Number of HLA class II alleles bound (of 26 tested),HLA class II alleles bound with an affinity of 1000 nM or better (of 26 tested) [%],Substance
7,–,"Truncated 15-mer Exendin-4 (16–30): Truncated 15-mer of exendin-4, residues 16–30, non-acylated (EEAVRLFIEWLKNGG; Exendin-4; UniProt P26349 63-77, looked up, fragment)"
18,69,QLLDRGATALVLQVLNVPRLMTQD [Peptide 14]
